{"source": "PubChem BioAssay AID445", "about": "(National Center for Advancing Translational Sciences (NCATS), 2006)", "note": "The whole screen tested about 110,000 compounds, of which about 40 (0.04%) were called active. This list was built around the results that the source calls inconclusive (neither active nor inactive); the mix of calls is not that of the screen. Calls come from the whole dose curve; as a rule, active = well fitted curve in the direction sought with a large enough effect in the signal ratio (not every such curve was filed as active); inconclusive = small, poorly fitted or top-dose-only effect, or a change in a side signal; inactive = flat fitted curve, though single readings scatter; the % refers to the signal ratio. A potency beside an inconclusive call is a rough fit, not a confirmed value. Potency is the fitted concentration of half-maximal effect."}
{"experiment": "IkB Signaling;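 for IkBa stabilization activation: 0% = basal untreated cells and 100% = reference inhibitor full response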", "conditions": "ABC-DLBCL IkBa-CBG/CBR dual luciferase ratio (green luciferase fused to IkBa over red control in OCI-Ly3 lymphoma cells), 4 h; IkBa stabilization activation: at 57.1 µM (top of the series), scaled: untreated 0%, proteasome inhibitor 100% unless noted", "method_in_brief": "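Luminescence ratio of IκBα-fused green versus native red beetle luciferase in OCI-Ly3 cells, 4 h post-doxycycline with compound; red signal alone, scaled from basal (0%) to zero light (-100%), flagged nonspecific or cytotoxic effects.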"}
{"smiles": "CN(C(=O)c1c(O)c2ccccc2n(C)c1=O)c1ccccc1", "IkBa stabilization activation": "inactive"}
{"smiles": "Cn1nnc2c(NCc3c(F)cccc3F)ncnc21", "IkBa stabilization activation": "inconclusive: -0.285% [signal inhibitor]"}
{"smiles": "Nc1ccc(N=Nc2ccccc2)c(N)c1", "IkBa stabilization activation": "inactive"}
{"smiles": "COc1ccc(CCNC(=O)c2cc(=O)c3cc(C)c(C)cc3o2)cc1OC", "IkBa stabilization activation": "inconclusive: 2.25% [signal inhibitor]"}
{"smiles": "COc1ccc(N2CCN(Cc3nc4c(c(=O)[nH]c(=O)n4C)n3Cc3ccccc3F)CC2)cc1", "IkBa stabilization activation": "inactive"}
{"smiles": "CCc1ccc(C(=O)CC2(O)C(=O)N(CCc3ccccc3)c3ccc(Cl)cc32)cc1", "note": "(stereo not drawn)", "IkBa stabilization activation": "inconclusive: 4.45% [signal inhibitor]"}
{"smiles": "Cn1c(=O)c2c(nc(SCC(=O)Nc3ccc(F)c(F)c3)n2Cc2ccccc2F)n(C)c1=O", "IkBa stabilization activation": "inactive"}
{"smiles": "COc1ccc(CCNC(=O)CCc2c(C)nc3cc(-c4cccc(F)c4)nn3c2C)cc1OC", "IkBa stabilization activation": "inconclusive: 12.3% [signal inhibitor]"}
{"smiles": "CCCOc1ccc(C(=O)N(Cc2ccco2)Cc2ccco2)cc1", "IkBa stabilization activation": "inconclusive: 1.34% [signal inhibitor]"}
{"smiles": "O=C(NCC(c1cccs1)S(=O)(=O)c1cccs1)c1c(F)cccc1F", "note": "(stereo not drawn)", "IkBa stabilization activation": "inactive"}
{"smiles": "Cc1ccccc1OCC(=O)Nc1ccccc1OCc1cc(=O)n2ccccc2n1", "IkBa stabilization activation": "inconclusive: 0.577% [signal inhibitor]"}
{"smiles": "COc1ccc(-c2cc(C(=O)Nc3ccccc3SC)no2)cc1OC", "IkBa stabilization activation": "inactive"}
{"smiles": "COc1ccc(C(=O)Nc2cccc(C(=O)OCc3cc(=O)n4c5c(sc4n3)CCCC5)c2)cc1", "Potency": "inconclusive: 6.31 µM [signal inhibitor, partial curve]"}
{"smiles": "Cc1ccc(CCNC(=O)CCCc2nnc3n(C)c(=O)c4sccc4n23)cc1", "IkBa stabilization activation": "inactive"}
{"smiles": "FC(F)(F)c1cccc(Nc2c3c(nc4ccc(Cl)cc24)CCC3)c1", "IkBa stabilization activation": "inconclusive: 1.31% [signal inhibitor]"}
{"smiles": "CC(=O)N(C)c1ccc(OCC(O)CN(Cc2ccco2)S(=O)(=O)c2ccc(C)cc2)cc1", "note": "(stereo not drawn)", "IkBa stabilization activation": "inconclusive: 6.58% [signal inhibitor]"}
{"smiles": "COc1cc(OC)c(NC(=O)CCc2c(C)nc3c4c(C)cc(C)nc4nn3c2C)cc1Cl", "IkBa stabilization activation": "inconclusive: 5.13% [signal inhibitor]"}
{"smiles": "CCCCCN1C(C(=O)c2ccccc2)=C(OC(=O)CC)c2ccccc2S1(=O)=O", "IkBa stabilization activation": "inactive"}
{"smiles": "CCOC(=O)c1oc2ccccc2c1NC(=O)COC", "IkBa stabilization activation": "inactive"}
{"smiles": "COc1cc(NC(=O)C2CCN(S(=O)(=O)c3c(C)noc3/C=C/c3ccccc3F)CC2)cc(OC)c1OC", "IkBa stabilization activation": "inconclusive: 2.47% [signal inhibitor]"}
{"smiles": "O=C(NCc1ccco1)c1ccc(NC(=O)C2COc3ccccc3O2)cc1", "note": "(stereo not drawn)", "IkBa stabilization activation": "inconclusive: 2.51% [signal inhibitor]"}
{"smiles": "COc1cccc(/C=C/c2nc(C#N)c(N3CCN(C)CC3)o2)c1", "IkBa stabilization activation": "inconclusive: 0.972% [signal inhibitor]"}
{"smiles": "COc1ccc(Nc2oc(COc3ccc(Cl)cc3)nc2C#N)cc1", "IkBa stabilization activation": "inconclusive: 1.43% [signal inhibitor]"}
{"smiles": "O=C(c1cnccn1)N1CCC2(CC1)CCN(c1cccc(-c3ccccc3)c1)CC2", "IkBa stabilization activation": "inactive: 2.29% [at 11.4 µM, scaled: untreated 0%, proteasome inhibitor 100%]"}
{"smiles": "Cc1ccc(CCNC(=O)c2ccc(Nc3nc4ccccc4n4nnnc34)cc2)cc1", "Potency": "inconclusive: 25.1 µM [signal inhibitor, partial curve]"}
{"smiles": "O=C(c1n[nH]c2ccccc12)N1CCN(S(=O)(=O)c2ccc3ccccc3c2)CC1", "IkBa stabilization activation": "inconclusive: 4.5% [signal inhibitor]"}
{"smiles": "CCC(Sc1nc2n[nH]c(C)c2c(=N)n1-c1ccccc1Cl)C(=O)N(CC)CC", "note": "(stereo not drawn)", "IkBa stabilization activation": "inconclusive: 2.14% [signal inhibitor]"}
{"smiles": "S=C(S)NCCN1CCNCC1", "IkBa stabilization activation": "inactive: -1.32% [at 11.4 µM, scaled: untreated 0%, proteasome inhibitor 100%]"}
{"smiles": "COc1ccc(NC(=O)CCn2cnc3onc(-c4ccc(F)cc4)c3c2=O)cc1OC", "IkBa stabilization activation": "inactive"}
{"smiles": "O=C(Oc1cccc2cccnc12)c1ccc(Br)o1", "IkBa stabilization activation": "inactive"}
{"smiles": "CC1Cn2c(C(=O)NCc3ccccc3Cl)cc3cccc(c32)S1", "note": "(stereo not drawn)", "IkBa stabilization activation": "inconclusive: 1.59% [signal inhibitor]"}
{"smiles": "CCOC(=O)c1c(C)oc2ncnc(Nc3cccc(C(F)(F)F)c3)c12", "IkBa stabilization activation": "inactive"}
{"smiles": "N#CCCn1c(=O)c(CCc2ccccc2)nc2cnc(N3CCOCC3)nc21", "IkBa stabilization activation": "inactive: -5.46% [at 11.4 µM, scaled: untreated 0%, proteasome inhibitor 100%]"}
{"smiles": "CC1N/C(=C\\C(=O)c2ccccc2)N(O)C1(C)C", "note": "(stereo not drawn)", "IkBa stabilization activation": "inactive"}
{"smiles": "CCN(CC)S(=O)(=O)c1ccc(S(=O)(=O)N(Cc2ccccn2)Cc2ccco2)cc1", "IkBa stabilization activation": "inconclusive: 4.24% [signal inhibitor]"}
{"smiles": "Cc1ccc(Cn2ccnc2SCC(=O)NCc2ccccc2)cc1", "IkBa stabilization activation": "inconclusive: 1.46% [signal inhibitor]"}
{"smiles": "Cc1ccc(NC(=O)c2ccc3c(c2)NC(=O)c2ccccc2S3)c(Cl)c1", "IkBa stabilization activation": "inconclusive: -0.307% [signal inhibitor]"}
{"smiles": "Cc1nn(CC(=O)NC2CC2)c(=O)c2cc3cc(F)ccc3n12", "IkBa stabilization activation": "inactive"}
{"smiles": "COc1ccc(CNc2ncncc2-c2ccc(N(C)C)cc2)c(OC)c1", "IkBa stabilization activation": "inactive: 0.443% [at 11.4 µM, scaled: untreated 0%, proteasome inhibitor 100%]"}
{"smiles": "Cn1c(=O)c2c(nc(SCC(=O)Nc3ccccc3F)n2Cc2ccccc2F)n(C)c1=O", "Potency": "inconclusive: 20 µM [signal inhibitor]"}
{"smiles": "COc1ccc(N2CCN(CCCNC(=O)c3c(C)nn(-c4ccc(F)cc4)c3-n3cccc3)CC2)cc1", "IkBa stabilization activation": "inconclusive: -2.02% [signal inhibitor]"}
{"smiles": "CCc1ccc(NC(=O)Cn2nnc(-c3ccccc3N)n2)cc1", "IkBa stabilization activation": "inconclusive: 1.02% [signal inhibitor]"}
{"smiles": "COc1ccc(S(=O)(=O)N(CC(=O)NC(C)c2ccccc2)c2ccc(C)cc2)cc1OC", "note": "(stereo not drawn)", "IkBa stabilization activation": "inconclusive: 11.9% [signal inhibitor]"}
{"smiles": "COc1ccccc1N1CCN(C(=O)c2cc3c(=O)n(Cc4cccs4)ccc3nc2C)CC1", "IkBa stabilization activation": "inconclusive: 0.462% [signal inhibitor]"}
{"smiles": "CCOC(=O)N1CCc2c(sc3c2c(=O)n(-c2ccc(CC)cc2)c(=O)n3Cc2ccc(F)cc2Cl)C1", "IkBa stabilization activation": "inconclusive: 1.2% [signal inhibitor]"}
{"smiles": "COc1ccccc1-c1cc(C(=O)Nc2cc(C)n(Cc3ccc(Cl)cc3)n2)no1", "IkBa stabilization activation": "inconclusive: 14.9% [signal inhibitor]"}
{"smiles": "CCOC(=O)c1c(NC(=O)Cc2coc3ccc(CC)cc23)sc2c1CCC2", "IkBa stabilization activation": "inconclusive: -1.54% [signal inhibitor]"}
{"smiles": "Cc1ccc(-n2ncc3c(NCCCn4ccnc4)ncnc32)cc1C", "IkBa stabilization activation": "inconclusive: 0.116% [signal inhibitor]"}
{"smiles": "O=C(CCn1c(=O)c2sccc2n(CC(=O)OCc2ccccc2)c1=O)NCc1ccco1", "IkBa stabilization activation": "inconclusive: 2.77% [signal inhibitor]"}
{"smiles": "CCOc1ccc2nc(N3CCCC(C(=O)NCCc4ccc(Cl)cc4)C3)sc2c1", "note": "(stereo not drawn)", "IkBa stabilization activation": "inconclusive: 0.357% [signal inhibitor]"}
{"smiles": "COc1cc2c(cc1OC)-c1cc(NC3CCCCCCC3)nc(=O)n1CC2", "IkBa stabilization activation": "inactive"}
{"smiles": "Cc1nn(CCc2nc(-c3ccco3)cs2)c2[nH]c(=O)cc(C(F)(F)F)c12", "IkBa stabilization activation": "inconclusive: 1.26% [signal inhibitor]"}
{"smiles": "COc1ccccc1CN1CCC2(CC1)CCN(C(=O)c1csnn1)CC2", "IkBa stabilization activation": "inactive: -0.314% [at 11.4 µM, scaled: untreated 0%, proteasome inhibitor 100%]"}
{"smiles": "c1ccc(CCn2nnnc2C(c2cccnc2)N2CCN(c3nc4ccccc4s3)CC2)cc1", "note": "(stereo not drawn)", "IkBa stabilization activation": "inconclusive: 9.32% [signal inhibitor]"}
{"smiles": "O=C(Nc1ccc(OC(F)(F)F)cc1)c1cc(-c2ccc(Cl)cc2)on1", "IkBa stabilization activation": "inactive"}
{"smiles": "CC(=O)N1CCCc2ccc(NC(=O)c3ccc(OC(C)C)cc3)cc21", "IkBa stabilization activation": "inconclusive: 3.56% [signal inhibitor]"}
{"smiles": "CCC(=O)N1CCc2cc(Br)cc(S(=O)(=O)N3CCCC(C(=O)NCc4ccc(C)cc4)C3)c21", "note": "(stereo not drawn)", "IkBa stabilization activation": "inconclusive: 6.8% [signal inhibitor]"}
{"smiles": "Cc1ccc(-n2c3nc(=O)n(C)c(=O)c-3cc3ccccc32)c(C)c1", "IkBa stabilization activation": "inconclusive: 0.636% [signal inhibitor]"}
{"smiles": "Cc1nc2ccccn2c1/C(O)=C1\\C(=O)C(=O)N(CCCN(C)C)C1c1ccc(Cl)cc1", "note": "(stereo not drawn)", "Potency": "inconclusive: 7.94 µM [signal inhibitor, full curve]"}
{"smiles": "C[C@@H]1O[C@@H](O)[C@@H](O)[C@H](O)[C@H]1O", "IkBa stabilization activation": "inactive: 0.134% [at 11.4 µM, scaled: untreated 0%, proteasome inhibitor 100%]"}
{"smiles": "Cc1ccccc1S(=O)(=O)Cc1ccc(C(=O)N2CCN(c3cccc(C)c3C)CC2)o1", "IkBa stabilization activation": "inconclusive: 5.94% [signal inhibitor]"}
{"smiles": "Cc1ccc2c(=O)cc(C(=O)Nc3c(C)cccc3C)oc2c1", "IkBa stabilization activation": "inconclusive: 0.791% [signal inhibitor]"}
{"smiles": "CCCCN(Cc1cc2cc(C)ccc2[nH]c1=O)C(=O)c1cccc(Cl)c1", "IkBa stabilization activation": "inconclusive: 3.87% [signal inhibitor]"}
{"smiles": "O=c1c2ccccc2nc(SCc2cn3ccsc3n2)n1-c1ccccc1F", "IkBa stabilization activation": "inactive"}
{"smiles": "COc1ccc(NC(=O)c2cc(-c3ccc(O)cc3)on2)cc1OC", "IkBa stabilization activation": "inconclusive: 18.6% [signal activator]"}
{"smiles": "O=C(c1cc(-c2ccc(Cl)c(Cl)c2)on1)N1CCCC1", "IkBa stabilization activation": "inactive"}
{"smiles": "Cc1cccc(NC(=O)CSc2n[nH]c(-c3ccncc3)n2)c1", "IkBa stabilization activation": "inactive"}
{"smiles": "CCOc1ccc(OCC)c(NC(=O)CSc2nc3c(c(=O)n(C)c(=O)n3C)n2C)c1", "IkBa stabilization activation": "inconclusive: 3.16% [signal activator]"}
